Key:
[1] = test system: Ki67+ cells in CD4+ cells; assay: Pharmacodynamic effects in cynomolgus monkeys; conditions: cynomolgus monkey, in vivo
Procedure, shortened: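 Cynomolgus monkeys received antibody or isotype control; pharmacodynamic readout was the percentage of Ki67+ cells among CD4+ cells.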

[2] = test system: murine tumor, tissue, and plasma conditioned media; assay: Ex vivo cleavage in murine tumor, tissue, and plasma, CTLA4 ELISA; assay type: in vitro ADME
Protocol: In another study, ex vivo cleavage in murine tumor, tissue, and plasma was assessed using a CTLA4 ELISA assay. This included the following murine models: C57/B16 (N=9), MC38 in wild type mice (N=9), MC38 in hCTLA4 mice (N=5), MB49 in wild type mice (N=6), MCA205 in wild type mice (N=4), and B16 in wild type mice (N=4). Cleavage in tumors, spleen, liver, kidney, and plasma was assessed. Plasma samples were pooled. Frequency of cleavage and the percentage of the molecule cleaved (median) were calculated.

[3] = In vivo cleavage detection in tumor, liver, kidney, spleen and plasma (western blot) and CTLA4 binding of recovered antibody; design: species or system B-hCTLA-4 transgenic mice
Protocol: B-hCTLA-4 transgenic female mice were purchased from Biocytogen and were 8-10 weeks old at the start of study. MC38 colorectal tumor cells (5×10^5 cells per mouse), MB49 bladder cancer cells (1×10^6 cells per mouse) or MCA205 fibrosarcoma cells (1×10^6 cells per mouse) were subcutaneously into the right flank of each mouse. Upon reaching ˜250-500 mm^3 sized tumors (day 0), the mice received a single 10 mg/kg intraperitoneal dose of indicated antibodies. Tumor, liver, kidney, spleen and plasma harvested on day 4 for analysis of cleavage by western blot.
For plasma samples, a direct western blot approach is utilized by separating equal volumes of denatured plasma (1-2 μL input) on a gradient criterion precast gel (BioRad). Separated proteins were then transferred into a nitrocellulose membrane using Turbo Transblot system (BioRad). Membranes were than developed using standard methods for anti-human kappa light chain reactivity with an HRP conjugated antibody (ab202549). Cleavage is assessed visually as the cleaved light chain migrates lower than the un-cleaved light chain with a mass difference of 2 kD.
Protein lysates from tumor, liver, spleen and kidney were generated using Tissue Lyser II (Qiagen) bead homogenizer in RIPA buffer (Pierce, 87788) supplemented with protease and phosphatase inhibitors (Thermo Fisher, 78442). Protein concentrations were determined by BCA assay and 3 mgs of tissue lysate was subjected to immunoprecipitation with biotin conjugated anti-human kappa light chain antibody (LSBio, LS-C351451-500) and streptavidin magnetic beads (Pierce, 88816). Proteins were eluted in 50 μL 10 mM Glycine (pH 2) and neutralized with 1M Tris (pH 8) prior to western blot detection of human kappa light chain as described above.
Studies were also carried out where IgG levels of each antibody administered to MB49-bearing mice was quantified by an ELISA assay and then each sample was assayed in a 3-fold dilution series starting at 1 μg/mL for spleen or 0.04 μg/mL for kidney and liver tissue, on a CTLA4-coated MSD plate to assess CTLA4 binding. These studies included a non-masked parental antibody (Antibody 2-6), masked and cleavable antibodies (e.g., Antibody 2-14 and Antibody 2-16), and a masked but non-cleavable antibody (Antibody 2-10). FIG. 24D is an SDS-PAGE analysis showing the percentage (%) of product cleaved for Antibody 2-14. […] FIG. 24F depicts a heat map of the in vitro cleavage of cleavable peptide substrates by a panel of exemplary proteases.

[4] = In vivo cleavage of masked antibodies in plasma of MC38 tumor-bearing mice, Western blot; design: species or system C57BL/6J mice; conditions: MC38-bearing mice, 200 μg i.p., days 2, 4, 7

B1: Antibody 2-16: masked Antibody 2-6: mask CPFPALELC, cleavable peptide DSGGFMLT; SEQ ID NO: 422 and 421 (protein)
light: ACPFPALELCSSGGSGPDSGGFMLTSGGEIVLTQSPDFQSVTPKEKVTITCSANSALSYMYWYQQKPDQSPKLWVHGTSNLASGVPSRFSGSGSGTDFTLTINSLEAEDAATYYCHHWSNTQWTFGGGTKVEIKRTVAAPSVFIFPPSDEQLKSGTASVVCLLNNFYPREAKVQWKVDNALQSGNSQESVTEQDSKDSTYSLSSTLTLSKADYEKHKVYACEVTHQGLSSPVTKSFNRGEC
heavy: QVQLVQSGAEVKKPGSSVKVSCKASGYTFTNYFMNWVRQAPGQGLEWMGRVDPEQGRADYAEKFKKRVTITADKSTSTAYMELSSLRSEDTAVYYCARRAMDNYGFAYWGQGTLVTVSS[human IgG1 constant region with changes left out here]
[1]
  peripheral PD effects, percentage (%) of Ki67+ cells in CD4+ cells: reduced PD effects as compared to the unmasked parental Antibody 2-6
[2]; B16-wt, Kidney (n = 4)
  Percentage (%) cleaved molecule: 2%
[2]; B16-wt, Liver (n = 4)
  Percentage (%) cleaved molecule: 1%
[2]; B16-wt, Plasma (n = 1)
  Percentage (%) cleaved molecule: 0%
[2]; B16-wt, Spleen (n = 4)
  Percentage (%) cleaved molecule: 1%
[2]; B16-wt, Tumor (n = 4)
  Percentage (%) cleaved molecule: 0%
[2]; C57/B16-wt, Kidney (n = 9)
  Percentage (%) cleaved molecule: 2%
[2]; C57/B16-wt, Liver (n = 9)
  Percentage (%) cleaved molecule: 2%
[2]; C57/B16-wt, Plasma (n = 2)
  Percentage (%) cleaved molecule: 19%
[2]; C57/B16-wt, Spleen (n = 9)
  Percentage (%) cleaved molecule: 3%
[2]; MB49-wt, Kidney (n = 6)
  Percentage (%) cleaved molecule: 5%
[2]; MB49-wt, Liver (n = 6)
  Percentage (%) cleaved molecule: 1%
[2]; MB49-wt, Plasma (n = 1)
  Percentage (%) cleaved molecule: 4%
[2]; MB49-wt, Spleen (n = 6)
  Percentage (%) cleaved molecule: 1%
[2]; MB49-wt, Tumor (n = 6)
  Percentage (%) cleaved molecule: 2%
[2]; MC38-hCTLA4, Kidney (n = 5)
  Percentage (%) cleaved molecule: 5%
[2]; MC38-hCTLA4, Liver (n = 5)
  Percentage (%) cleaved molecule: 2%
[2]; MC38-hCTLA4, Plasma (n = 1)
  Percentage (%) cleaved molecule: 0%
[2]; MC38-hCTLA4, Tumor (n = 5)
  Percentage (%) cleaved molecule: 7%
[2]; MC38-wt, Kidney (n = 9)
  Percentage (%) cleaved molecule: 3%
[2]; MC38-wt, Liver (n = 9)
  Percentage (%) cleaved molecule: 5%
[2]; MC38-wt, Plasma (n = 1)
  Percentage (%) cleaved molecule: 0%
[2]; MC38-wt, Spleen (n = 9)
  Percentage (%) cleaved molecule: 0%
[2]; MC38-wt, Tumor (n = 9)
  Percentage (%) cleaved molecule: 4%
[2]; MCA205-wt, Kidney (n = 4)
  Percentage (%) cleaved molecule: 0%
[2]; MCA205-wt, Liver (n = 4)
  Percentage (%) cleaved molecule: 0%
[2]; MCA205-wt, Plasma (n = 1)
  Percentage (%) cleaved molecule: 0%
[2]; MCA205-wt, Spleen (n = 4)
  Percentage (%) cleaved molecule: 2%
[2]; MCA205-wt, Tumor (n = 4)
  Percentage (%) cleaved molecule: 0%
[2]; kidney conditioned media of B16-wt
  Frequency of cleavage: 100%
[2]; kidney conditioned media of MB49-wt
  Frequency of cleavage: 17%
[2]; kidney conditioned media of MC38-hCTLA4
  Frequency of cleavage: 80%
[2]; kidney conditioned media of MC38-wt
  Frequency of cleavage: 67%
[2]; tumor conditioned media of MB49-wt
  Frequency of cleavage: 17%
[2]; tumor conditioned media of MC38-hCTLA4
  Frequency of cleavage: 40%
[2]; tumor conditioned media of MC38-wt
  Frequency of cleavage: 100%
[3]; MB49-bearing B-hCTLA4 transgenic mice, CTLA4-coated MSD plate
  binding to CTLA4 of antibody isolated from plasma, kidney, liver, or spleen: stronger binding compared to Antibody 2-10 in kidney, liver, and spleen
[3]; MB49 bladder cancer, single 10 mg/kg i.p., day 4
  cleavage products in liver tissue: not
[3]; MC38 colorectal cancer, single 10 mg/kg i.p., day 4
  cleavage products in liver tissue: not
[3]; MCA205 fibrosarcoma, single 10 mg/kg i.p., day 4
  cleavage products in tumors and in liver tissue: not
[4]
  activation in vivo (cleavage in plasma): not detected
